Reference: a collection of fitness landscapes (doi:10.1126/science.1257360)
This is one part of the list.

B1: PhoQ; a variant is named by its letters at X, in order, P23837 (parent)
chain: MKKLLRLFFPLSLRVRFLLATAAVVLVLSLAYGMVALIGYSVSFDKTTFRLLRGESNLFYTLAKWENNKLHVELPENIDKQSPTMTLIYDENGQLLWAQRDVPWLMKMIQPDWLKSNGFHEIEADVNDTSLLLSGDHSIQQQLQEVREDDDDAEMTHSVAVNVYPATSRMPKLTIVVVDTIPVELKSSYMVWSWFIYVLSANLLLVIPLLWVAAWWSLRPIEALAKEVRELEEHNRELLNPATTRELTSLVRNLNRLLKSERERYDKYRTTLTDLTHSLKTPLXXLQXXLRSLRSEKMSVSDAEPVMLEQISRISQQIGYYLHRASMRGGTLLSRELHPVAPLLDNLTSALNKVYQRKGVNISLDISPEISFVGEQNDFVEVMGNVLDNACKYCLEFVEISARQTDEHLYIVVEDDGPGIPLSKREVIFDRGQRVDTLRPGQGVGLAVAREITEQYEGKIVAGESMLGGARMEVIFGRQHSAPKDE

Variants of: B1
Assay: enrichment ratio after two sorts for PhoP signalling (ratio (wild type AVST 3.29)); higher = more functional
Conditions: with PhoP (E. coli)

| Variant | enrichment ratio |
| --- | --- |
| MGID | ≤ 0.25 |
| VEAV | 5.89 |
| TCVA | ≤ 0.25 |
| DDLH | ≤ 0.25 |
| VSCH | 2.85 |
| FKWT | ≤ 0.25 |
| AMNY | ≤ 0.25 |
| MENR | ≤ 0.25 |
| SHLD | ≤ 0.25 |
| SVGT | ≤ 0.25 |
| SASR | ≤ 0.25 |
| FFTI | ≤ 0.25 |
| TEPF | ≤ 0.25 |
| FHIT | ≤ 0.25 |
| NENK | ≤ 0.25 |
| SWEV | ≤ 0.25 |
| SDTS | ≤ 0.25 |
| IHKT | ≤ 0.25 |
| MMWV | ≤ 0.25 |
| GHPK | ≤ 0.25 |
| YPNR | ≤ 0.25 |
| VQQY | ≤ 0.25 |
| PWQT | ≤ 0.25 |
| NRTD | ≤ 0.25 |
| VTTW | ≤ 0.25 |

| Variant | enrichment ratio |
| --- | --- |
| FGSP | ≤ 0.25 |
| QTIS | ≤ 0.25 |
| YSVQ | ≤ 0.25 |
| VGRY | ≤ 0.25 |
| LPVS | ≤ 0.25 |
| LSGI | ≤ 0.25 |
| WKVV | ≤ 0.25 |
| TYRQ | ≤ 0.25 |
| VYEA | ≤ 0.25 |
| PTIE | ≤ 0.25 |
| MSTD | ≤ 0.25 |
| QFYY | ≤ 0.25 |
| CLWM | ≤ 0.25 |
| KVQT | ≤ 0.25 |
| QEPI | ≤ 0.25 |
| PSCY | ≤ 0.25 |
| WSFC | ≤ 0.25 |
| DKFP | ≤ 0.25 |
| YYQN | ≤ 0.25 |
| MFKM | ≤ 0.25 |
| DCRR | ≤ 0.25 |
| VQYT | ≤ 0.25 |
| IWRV | ≤ 0.25 |
| RLDH | ≤ 0.25 |
| LNNM | ≤ 0.25 |

| Variant | enrichment ratio |
| --- | --- |
| LQRP | ≤ 0.25 |
| DMTW | ≤ 0.25 |
| ANVN | ≤ 0.25 |
| GRLW | ≤ 0.25 |
| RLSH | ≤ 0.25 |
| GFYM | ≤ 0.25 |
| KHIS | ≤ 0.25 |
| SFWW | ≤ 0.25 |
| GKNE | ≤ 0.25 |
| TRCR | ≤ 0.25 |
| NFDT | ≤ 0.25 |
| HWNI | ≤ 0.25 |
| MYWG | ≤ 0.25 |
| DFIW | ≤ 0.25 |
| KGLQ | ≤ 0.25 |
| AYRH | ≤ 0.25 |
| IHQL | ≤ 0.25 |
| FHWW | ≤ 0.25 |
| HNRM | ≤ 0.25 |
| EKRF | ≤ 0.25 |
| GRDY | ≤ 0.25 |
| YFTY | ≤ 0.25 |
| ISAT | ≤ 0.25 |
| SQYD | ≤ 0.25 |
| RMII | ≤ 0.25 |

| Variant | enrichment ratio |
| --- | --- |
| FFRQ | ≤ 0.25 |
| WQGW | ≤ 0.25 |
| QFYV | ≤ 0.25 |
| YANM | 0.317 |
| LEEW | ≤ 0.25 |
| RCCE | ≤ 0.25 |
| FYPV | ≤ 0.25 |
| FEGR | ≤ 0.25 |
| RYFF | 0.259 |
| RCNN | ≤ 0.25 |
| GNWK | ≤ 0.25 |
| GSAF | ≤ 0.25 |
| VWFT | ≤ 0.25 |
| HIVV | ≤ 0.25 |
| FEHK | ≤ 0.25 |
| YFFP | ≤ 0.25 |
| DWMT | ≤ 0.25 |
| TVEE | ≤ 0.25 |
| PPVG | ≤ 0.25 |
| MGHY | ≤ 0.25 |
| HWIH | ≤ 0.25 |
| TVVT | ≤ 0.25 |
| MYAI | ≤ 0.25 |
| FWYI | ≤ 0.25 |
| PFGG | ≤ 0.25 |

| Variant | enrichment ratio |
| --- | --- |
| YNVD | ≤ 0.25 |
| KRGY | ≤ 0.25 |
| GSMT | 2.16 |
| EVTW | ≤ 0.25 |
| MPCC | ≤ 0.25 |
| YYNK | ≤ 0.25 |
| YYDK | ≤ 0.25 |
| IDQH | ≤ 0.25 |
| HSWH | ≤ 0.25 |
| LCQH | ≤ 0.25 |
| GIVN | 8.67 |
| MWTA | ≤ 0.25 |
| FPGK | ≤ 0.25 |
| QRAQ | ≤ 0.25 |
| VIMQ | ≤ 0.25 |
| SASW | ≤ 0.25 |
| YYFN | ≤ 0.25 |
| QIGM | ≤ 0.25 |
| FACP | ≤ 0.25 |
| DTDD | ≤ 0.25 |
| RADW | ≤ 0.25 |
| QHTK | ≤ 0.25 |
| RCIE | ≤ 0.25 |
| STVL | 7.85 |
| PELG | ≤ 0.25 |

| Variant | enrichment ratio |
| --- | --- |
| MHDY | ≤ 0.25 |
| YKPH | ≤ 0.25 |
| SFAN | ≤ 0.25 |
| IDIL | ≤ 0.25 |
| QEHC | 11 |
| VPDV | ≤ 0.25 |
| HARA | ≤ 0.25 |
| VCDV | ≤ 0.25 |
| IWHQ | ≤ 0.25 |
| EMGR | ≤ 0.25 |
| TVIN | ≤ 0.25 |
| VSCP | ≤ 0.25 |
| PNSW | ≤ 0.25 |
| IRMY | ≤ 0.25 |
| SAMY | 4.56 |
| HWTH | ≤ 0.25 |
| TSFM | 0.785 |
| GQCG | 16.6 |
| FEVW | ≤ 0.25 |
| DPDK | ≤ 0.25 |
| TRCA | 0.602 |
| PAWH | ≤ 0.25 |
| DHTH | ≤ 0.25 |
| FYHN | ≤ 0.25 |
| ESEG | ≤ 0.25 |

| Variant | enrichment ratio |
| --- | --- |
| DFVI | ≤ 0.25 |
| QTMR | ≤ 0.25 |
| QPLT | ≤ 0.25 |
| HIHG | ≤ 0.25 |
| GWSF | ≤ 0.25 |
| WQIM | ≤ 0.25 |
| MNRL | ≤ 0.25 |
| YFFC | ≤ 0.25 |
| RGFR | ≤ 0.25 |
| THTV | 9.73 |
| EISN | ≤ 0.25 |
| REYT | ≤ 0.25 |
| QQCN | ≤ 0.25 |
| LKPL | ≤ 0.25 |
| EKHL | ≤ 0.25 |
| KGRA | ≤ 0.25 |
| EHYS | ≤ 0.25 |
| NKAP | ≤ 0.25 |
| CYVL | ≤ 0.25 |
| QTVH | ≤ 0.25 |
| MFLK | ≤ 0.25 |
| YDWV | ≤ 0.25 |
| VQHQ | ≤ 0.25 |
| GADM | ≤ 0.25 |
| YVQV | ≤ 0.25 |

| Variant | enrichment ratio |
| --- | --- |
| DYQL | ≤ 0.25 |
| TLDH | ≤ 0.25 |
| RTFQ | ≤ 0.25 |
| WPSM | ≤ 0.25 |
| WLWF | ≤ 0.25 |
| FAKD | ≤ 0.25 |
| LMDS | ≤ 0.25 |
| KSVR | ≤ 0.25 |
| NMGR | ≤ 0.25 |
| VWWE | ≤ 0.25 |
| YTGR | ≤ 0.25 |
| TNLG | ≤ 0.25 |
| MEGQ | ≤ 0.25 |
| YTYV | ≤ 0.25 |
| FQYS | ≤ 0.25 |
| AMRH | ≤ 0.25 |
| LMEL | ≤ 0.25 |
| WEVE | ≤ 0.25 |
| VFCD | ≤ 0.25 |
| QEYA | ≤ 0.25 |
